This note sets out measurements from patent US20210228680A1 (ONCOIMMUNE, published 2021).

The target in the experiment is T1, Siglec-10Fc (human, UniProt Q96LC7 17-546).
T1 construct: The construct is named only as Siglec-10Fc; not shown: Fc part of Siglec-10Fc
T1 sequence (looked up): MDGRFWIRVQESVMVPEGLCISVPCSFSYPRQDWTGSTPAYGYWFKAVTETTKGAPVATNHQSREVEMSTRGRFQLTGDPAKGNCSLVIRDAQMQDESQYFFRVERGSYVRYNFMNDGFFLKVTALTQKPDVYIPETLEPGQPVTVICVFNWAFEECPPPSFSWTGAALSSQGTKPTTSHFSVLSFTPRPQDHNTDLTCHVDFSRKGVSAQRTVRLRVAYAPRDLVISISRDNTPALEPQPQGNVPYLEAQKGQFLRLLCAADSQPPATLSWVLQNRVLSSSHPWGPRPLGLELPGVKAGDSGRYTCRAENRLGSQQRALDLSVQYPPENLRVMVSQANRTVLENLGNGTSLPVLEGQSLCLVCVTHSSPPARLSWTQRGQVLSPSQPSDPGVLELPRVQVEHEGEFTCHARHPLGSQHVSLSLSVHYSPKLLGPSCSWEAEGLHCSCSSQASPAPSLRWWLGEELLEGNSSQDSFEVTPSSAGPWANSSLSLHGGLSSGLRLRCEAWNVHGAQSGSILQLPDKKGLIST
As to the kind of experiment: Biacore (SPR): CD24Fc immobilised on the chip, Siglec-10Fc injected at different concentrations; steady-state response plotted against concentration. Background: SPR reads the build-up and loss of mass on a sensor chip optically.

B1: CD24Fc fusion protein (processed, secreted form) (Fc fusion)
chain: SETTTGTSSNSSQSTSNSGLAPNPTNATT[… human IgG1 Fc …]
notes: The protein may be heavily glycosylated; also called CD24Ig; CD24IgG1
One may read the Kd as the equilibrium constant for the complex coming apart. Lower therefore signals a tighter complex. Molecule B1 had a Kd of 162 nM.
